Measured values: the supplement of paper PMC10126150
Values marked as one replicate rest on one cluster of the flow cell; about a third of the high ones do not repeat.

System: ATP
Test: switch fluorescence ratio, 500 uM ATP over buffer (Cy3 cluster intensity, sum of 5 cycles each) (fold (ratio)); higher = stronger signal-on switching upon ATP binding; sequences stand for … in TCGTCGGCAGCGTCAGATGTGTATAAGAGACAGTTTTTTTTTTTTTTTTTTTTTTTTT…TC
Conditions: aptamer strand: ATP DNA aptamer (quencher-CACCTGGGGGAGTATTGCGGAGGAAGG + anchor), 100 nM annealed; ATP concentration: 500 uM; one replicate
In short: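 Values give the fluorescence ratio for each switch-domain sequence, averaged from per-cluster ratios of summed target-cycle to summed buffer-cycle Cy3 intensity. The Cy3-labelled switching-strand clusters sat on a modified Illumina MiSeq flow-cell, were annealed to 100 nM quencher-labelled ATP aptamer, and were imaged in selection buffer, then after 15 min with 500 uM ATP at 22 °C. Five cycles ran with NaOH stripping and re-annealing between them, and clusters outside 100-1000 RFU were excluded.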
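Further: ATP exposure 15 min at 22 °C before imaging.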

Sequence	switch fluorescence ratio
CAGGGGAGTA	1.09
ATGCTGGACC	0.977
TGGAGGGGG	1.02
TGGAAGGGAA	0.968
ATGTTTTGTT	0.985
TGTAGGACAG	0.958
ATTGTGGTAC	1.01
AAGTTCTGCC	1
TGGGTGC	1
ACGTCGCAGA	1.08
TAGTATGAAT	0.993
TGTTGGTTCT	1
TGGCGTCTAA	0.969
TTTACAGGGC	1.06
GCCGCGCGCA	1.01
CGGAAAATAT	0.976
TATGGATTCA	0.961
TTCTGTA	0.973
TTTGGCCACT	1.04
ATTTTGAGCT	1.01
AATTCGAGTG	0.995
GAGTATAGTA	1.07
ATACATCAGC	1.02
CCTAACGGAG	1.21
GTTTTTATTA	1.01
TTATATGCGG	0.985

Sequence	switch fluorescence ratio
AATATGTAGT	1.03
GAGCTATCTG	1.05
GGGTCTTACT	1.05
ACTTTATCAG	1.05
AAGGATACGC	0.971
GTTTGGCCTC	0.996
CTGAAGGGT	0.998
GTTAATTGAC	0.958
ACTGGGAGTC	0.998
ATTCGTTTGA	1.05
AAATCGAACG	1.02
GGCGTTGAAT	1.05
TACGGGACAG	1.05
AAGCGCCTGG	0.99
CGGCATGGCT	1.1
AGCCCACCTT	1.09
GGCTCTCTAT	0.968
TCGTAGCGAA	2.27
GTATATTGGA	1.01
TATGTGTCGA	1.05
ATATTTTCGT	0.974
TAAAATTACG	1.37
CGTAGAAGG	1
ACAGTTCTGC	1.02
GATTCCCTGC	1.05
GTTTGCAATT	1.04

Sequence	switch fluorescence ratio
GGGCCCAAGC	1
ACTTAATAGA	1.01
CATCCACGCA	1.89
CGGTTATTAA	0.962
AGAGGCACCA	0.985
ATAGTAGACT	1.02
CGTTCTTACA	1.02
GCTAGCAAGA	0.985
TATGTAAGA	0.928
TTCTGGATGG	0.958
ACGGAGTTTA	1.07
GAACGGGTG	1.11
GAGGTATCGG	0.978
TCTAAAATTG	1.01
CCTAAACCAA	1.11
GTCACTCAAT	1.08
TCAGTCGTTC	0.964
TTTGTTGATC	1.03
ACAGTAAGGG	1.01
TTGGAACAGG	0.995
GCGTTGGTG	0.963
AGTATAGTAC	1.07
ACAGTCCTAG	1.02
TCACTCATGA	1.04
AATAGTTGTA	1.12
TAGAGGGATT	1

Sequence	switch fluorescence ratio
CTAGCACTAG	1.15
CTTCGATAGG	1.03
CTCAAGACAT	1.03
GAGGGCAGCG	0.981
ACGGAAGACA	1.17
GCGGGTTAT	0.994
ATTGTCTGGG	1.02
TAACGCGACT	1.15
CGAACGGCGG	1.01
TAACGTCGGT	0.99
ACGCTATGCT	1.95
TGAAGCATC	1.29
ATTGCCAGTG	1.01
TCACTATCGT	1.04
TAGAGAATCC	1.01
TTCAAGCAGC	3.56
CGGGAGTGTG	0.984
GACTTGAGC	1.08
CGAAAGCCTG	1
AACCGGCTAC	1.68
TCTTAGTATG	0.969
CTTAAACTTG	0.97
GATTGTGTTG	0.983
GCCTCAGTGC	1.01
TTGGGATGAC	1.03
CGGTTGGGAA	1.01

Sequence	switch fluorescence ratio
CGGGCACTT	0.999
GAAGTACAAC	1.19
ATCCTTCTGT	1.06
CTCTCGGGAA	1.11
TTACGTCGT	0.983
CAGAATTTAT	0.991
CGCAGTTTGT	1.06
CTTTTCAATC	1.73
TGTTGCAGGA	1.02
AACAGGGGAT	1.09
CAACCTATCG	1.05
ATATCATTCG	1
TGAATGATAT	1.02
CTGTCGAATG	0.952
TGCTACAATA	1.06
CCACACTCGT	1.03
AGGAGCGTCT	1.09
GTTTGGGCAC	0.973
CTCGTCGCGC	1.05
GTGTTCTCA	1.1
TTTGGAGAGT	1.01
CAGATGGTAG	0.988
TGGACTAGGT	0.978
CATGAGAAAG	1.02
TCAGCGGATT	0.988
TTCATCTAGC	1.04

Sequence	switch fluorescence ratio
AAATGGCGG	0.953
GAGTCCTAGT	0.985
GATTGAACGC	1.01
TTCATCTTTG	0.98
TTATAGTCCA	1.01
ATCACGTGAC	1.2
ATACTAGATT	0.985
TACCAAGTGC	1.11
GTTCGGTATT	0.994
GGCTGCAATT	1.69
CTCCCCCGAG	4.42
GAACGTAAAT	1.15
AACTTCGTTG	0.997
TGAGCTGGGA	0.981
ACAGCACGGC	1.34
CACAACCTAT	1.01
GATGGAATTC	1.07
ACAATCTGAA	1.03
CAATCTCTCG	1.01
GTGAAGTAAG	0.979
GAATCTGTTC	1.02
CTTTATCCGA	1.05
ATAGAATGAG	1.05
